Assay results as given in publication PMC4735112, “The Functional Unit of Neisseria meningitidis 3-Deoxy-ᴅ-Arabino-Heptulosonate 7-Phosphate Synthase Is Dimeric” (PLoS ONE, 2016).

Biological target: the molecule itself
Assay: SEC

B1: Neisseria meningitidis 3-deoxy-D-arabino-heptulosonate 7-phosphate synthase, wild type (enzyme)
chain: not shown
notes: 3-deoxy-D-arabino-heptulosonate 7-phosphate synthase (type I alpha DAH7PS) of Neisseria meningitidis; theoretical mass of a single chain 38.7 kDa; Homotetramer (dimer of tight dimers) in solution and in the crystal; also called NmeDAH7PS; NmeDAH7PS^WT; source: purified as previously described [12]
stoichiometry N: 4
